Test results: PubChem BioAssay AID1508624 (National Center for Advancing Translational Sciences (NCATS), 2021)
Out of some 48,000 compounds screened, about 120 (0.25%) were called active. Roughly 4% stayed inconclusive and do not appear here. Calls come from the whole dose curve; as a rule, active = well fitted activation curve with a large enough effect; inconclusive = small, poorly fitted or top-dose-only effect, or another doubt; inactive = no such curve, though single readings can be large or run the other way. The list shows a part of the results.

Assay: Primary qHTS for Identification of Small Molecule Activators of Huntingtin-Antisense Promoter Activity; note: nearly all actives have a fitted effect of over 55% in size
Conditions: HEK293 HTT-AS promoter firefly luciferase reporter (activity 0% = vehicle and -100% = no light), 24 h; series mostly up to 57.5 µM; activity change, positive = activation: at the top concentration
Summary of the method: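 Quantitative HTS used concentration series of up to 57.5 uM final on HEK293 luciferase reporter cells, 24 h at 37 degrees C. Readout was Dual-Glo firefly luminescence.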

Activity change, positive = activation, inactive:
CC(=O)N1CCCc2cc(S(=O)(=O)NCc3cccc(C)c3)ccc21 -18.4%, CCCN(CCC)C(=O)Cn1nnc2sc(-c3ccccc3)cc2c1=O 2.87%, Clc1ccc2c(c1)-c1c(cnc3cc(-c4ccccc4)nn13)CO2 3.12%, COc1ccc(N2CCN(C(=O)c3cnn(-c4ccc(F)cc4)c3-n3cccc3)CC2)cc1 -10.3%, CCC1CCCCN1CCCNC(=O)CN1C(=O)c2cccnc2Oc2ccc(C)cc21 (stereo unspecified) -2.12%, O=C(Nc1ccc(Br)cc1F)C1CCN(c2nc3ccccc3[nH]2)CC1 -23%, O=C1CCCc2cc(S(=O)(=O)N3CCCC(C(=O)Nc4ccc(F)c(Cl)c4)C3)ccc2N1 (stereo unspecified) -40.1%, CCOc1cc2[nH]c(=O)n(CCCCC(=O)N3CCN(c4ccc(OC)cc4)CC3)c(=O)c2cc1OCC -11.5%, CCOc1ccc(C(=O)Nc2nnc(S(=O)(=O)Nc3ccccc3)s2)cc1 0.523%, CSc1cccc(Nc2cc(C(=O)NCCc3ccc(Cl)cc3)c3ccccc3n2)c1 -38.9%, CC1CN(C(=O)N2CCC(C(=O)N3CCN(c4ccccc4)CC3)CC2)c2cc(Cl)ccc2O1 (stereo unspecified) -21.2%, CCOc1ccc2nc(N3CCC(C(=O)Nc4ccccc4CC)CC3)sc2c1 3.99%, Cc1cc(N2CCCCC2)nc2ccc(NC(=O)/C=C/c3ccc(OC(C)C)cc3)cc12 -16.4%, CCCN1CCN(C(=O)Cn2c(-c3cccs3)cc3ccccc32)CC1 -13.4%, COCCCNC(=O)C1CCN(C(=O)c2cnn(-c3ccccc3)c2-n2cccc2)CC1 -3.95%, Cc1ccc(NC(=O)c2cnc(N3CCCCC3)c3ccccc23)c(C)c1 -3.17%, CCCCOc1ccc(C2=NC(c3cccs3)=Nc3ccc(CC)cc3N2)cc1 17.3%, CC(C)CC(=O)Nc1nc2nc(-c3ccccc3)cc(=O)n2[nH]1 -8.54%, COC(=O)c1c(Oc2ccc(OC)cc2)nnc(-c2ccccc2)c1-c1ccccc1 -35.2%, Cc1ccc(N2C(=O)NC(NS(=O)(=O)c3ccccc3)(C(F)(F)F)C2=O)cc1C (stereo unspecified) -11.1%, CCOC(=O)c1ccc(O)c(O)c1 11%, COc1ccc(CNC(=O)CCCn2nc(C)c3sc4ccccc4c3c2=O)cc1OC -9.2%, CCOc1ccccc1CNC(=O)c1ccc(N2Cc3ccccc3Oc3ncccc32)s1 -18.6%, Cc1cccc(NC(=O)N2CCN(C(=O)c3nsc4ccccc34)CC2)c1C -22.5%, Cc1ccc2c(CC(=O)Nc3ccc(S(=O)(=O)N4CCCCC4C)cc3)coc2c1 (stereo unspecified) 0%, Cn1cc(-c2[nH]c3cc(NC(=O)[C@H](N)C4CCCCC4)cc4c3c2C=NNC4=O)cn1 -33.4%, Cc1ccc(CNC(=O)c2cccn2-c2nnc(N3CCCC3)s2)cc1 -0.503%, COc1cccc(NC(=O)CN2C(=O)CSc3ccc(S(=O)(=O)N4CCCC4)cc32)c1 -21.7%, COc1ccc(CCNC(=O)CSc2cn(CCNC(=O)c3cccc(C(F)(F)F)c3)c3ccccc23)cc1OC -42.8%, CCC1CN(C(=O)Nc2cccc3c2CCCC3)c2cc(Cl)ccc2O1 (stereo unspecified) -31.2%, O=C(Cn1ncc2ccsc2c1=O)N1CCN(c2ccc(F)cc2)CC1 -12.2%, Cc1ccc(-n2ncc3c(N4CCC(C(N)=O)CC4)ncnc32)cc1 -83.1%, Cc1ccc(S(=O)(=O)N2CCc3cc(C(=O)Nc4ccc(C(F)(F)F)cc4)ccc32)cc1 -4.34%, Cc1oc(-c2ccccc2Cl)nc1CS(=O)CC(=O)NCc1ccc(Cl)cc1 (stereo unspecified) -8.64%, Cc1cc(C(F)F)n2nc(C(=O)Nc3ccc(C(C)C)cc3)nc2n1 14.8%, Cc1ccc(COc2ccc(-c3cc(C(F)(F)F)n4nc(C)cc4n3)cc2)cc1 -7.46%, Fc1ccc(-c2ccc(CNCCSc3nnnn3-c3ccccc3)o2)cc1 -4.57%, O=S(=O)(Nc1nc2ccccc2nc1Nc1ccccc1Br)c1ccccc1 -13.3%, COc1ccc(CNS(=O)(=O)c2cc3c4c(c2)CCN4C(=O)CC3)cc1 -21.3%, O=C(CSc1nc2c([nH]c3ccccc32)c(=O)n1-c1cccc(Cl)c1)NCC1CCCO1 (stereo unspecified) -22.8%, COc1cccc(CNC(=O)C(C)n2ncn3cccc3c2=O)c1OC (stereo unspecified) -8.04%, O=C(Cn1c2ncccc2c(=O)n1-c1ccccc1)NCc1ccccc1Cl -14.7%, CCOc1ccc(-c2cn(-c3ccc(C)cc3)c(SCC(=O)Nc3ccc(C)cc3)n2)cc1 -19%, Cc1ccc(NC(=O)Cc2coc3ccc(C(C)C)cc23)c(C)c1 -20.3%, CC(=O)Nc1ccc(S(=O)(=O)N2CCC(c3nnc(-c4ccc(C)cc4)o3)CC2)cc1 -36.5%, CC(C)C(=O)N1c2nc(-c3ccco3)nn2C2(CCCCC2)[C@@H]2CCCC[C@@H]21 -23.1%, Cc1oc2c(cc(NS(=O)(=O)c3ccc(C(C)C)cc3)c3ccccc32)c1C(=O)O -28.3%, CC1(C)CNc2cc(NC(=O)c3cccnc3NCc3ccncc3)ccc21 2.16%, Cc1ccc(CCNc2ncnc3onc(-c4ccc(F)cc4)c23)cc1 -7.38%, O=c1[nH]nc(OCCCc2ccc(Cl)cc2)c(NCc2cccnc2)c1Br -30.9%, COc1cccc(CNC(=O)Cn2c(=O)n3nc(-c4cccc(F)c4)nc3c3ccccc32)c1 -0.817%, CCN(CC)C(=O)c1sc2c(c1C)c(=O)n(-c1ccc(Cl)c(Cl)c1)c(=O)n2Cc1cc(=O)n2ccccc2n1 -33.2%, COc1ccc(NC(=O)CCn2c(=O)c3cccn3c3cccnc32)cc1Cl -10.7%, O=C(Cn1c(=O)n(CCCS(=O)(=O)C2CCCCC2)c(=O)c2ccccc21)Nc1ccccc1C(F)(F)F -4.69%, Cc1ccc(S(=O)(=O)c2[nH]c(-c3ccccc3)nc2SCC(N)=O)cc1 -9.42%, COC(=O)c1sc2ncccc2c1-n1c(C)ccc1C 10.7%, COc1ccccc1CNS(=O)(=O)c1ccc2c(c1)CC(=O)N2C -9.9%, CCOC(=O)N1CCN(C(=O)c2c(C)nn(-c3cccc(C)c3)c2-n2cccc2)CC1 -22.3%, Cc1ccc(C)c(N2CCN(C(=O)CCS(=O)(=O)c3cc4c(cc3Cl)NC(=O)CO4)CC2)c1 -46.1%, O=C(NCc1ccc2c(c1)CCN2C(=O)c1ccccc1)c1ccccc1 11%, CCOc1ccccc1NC(=O)C(CC)Sc1nc2ncccc2[nH]1 (stereo unspecified) -10.8%, Cc1ccc2oc3c(c(=O)c2c1)C(c1ccccc1F)N(CCCN(C)C)C3=O (stereo unspecified) 14.9%, COc1ccc(CNC(=O)C2=C(C)C(=O)OC23CCCCC3)cc1 -3.29%, COc1ccc(-n2ncc3c2ncn2nc(COc4ccc(Cl)cc4)nc32)cc1 -11.8%, Cc1ccc(NC(=O)c2ccc3oc(=O)c(S(=O)(=O)c4ccccc4)cc3c2)cc1C -23.8%, Cc1ccc(NC(=O)Cn2nnc(-c3nc(-c4ccncc4)no3)c2N)c(C)c1 -6.01%, CC(NC(=O)C1CCN(C(=O)c2ccc(-n3ccc4ccccc43)s2)CC1)c1ccccc1 (stereo unspecified) -0.988%, COc1ccccc1NC(=O)C1=C(C)Nc2nc(SCc3ccc(Cl)cc3)nn2C1c1ccccc1Cl (stereo unspecified) -15.8%, CCOC(=O)C1CCN(C(=O)CN2c3ccc(C(C)C)cc3-c3ccccc3S2(=O)=O)CC1 12.1%, CCOc1ccc(OC(=O)c2cn(-c3cccc(OC)c3)c(=O)c3ccccc23)cc1 -14.8%, CC1CCN(C(=O)c2cc3c(=O)n(C)c4ccccc4c3s2)CC1 15.3%, CCOC(=O)c1c(NC(C)=O)c2c3c(sc2n1Cc1ccc(Cl)cc1)CCCC3 6.8%, COc1cc(C2NC(=O)N(C)C3=C2C(=O)N(c2cccc(Cl)c2)C3)ccc1O (stereo unspecified) -9.58%, COc1cccc(-n2c(SCC(=O)Nc3cccc(Cl)c3)nc3c(oc4ccccc43)c2=O)c1 -13%, Cc1c(NC(=O)CC(C)C)cccc1-c1nc2cccnc2s1 -10.8%, COc1ccccc1OC(=O)Oc1ccccc1OC 0.058%, COc1ccc(/C=C\C(=O)NC2CC(=O)N(c3ccc(F)cc3)C2)cc1OC (stereo unspecified) -7.1%, CS(=O)(=O)c1oc(-c2ccc(F)cc2)nc1S(=O)(=O)c1ccc(Cl)cc1 -39.9%, O=C(CSc1nc2c(sc3ccccc32)c(=O)n1CCCC(=O)NC1CCCC1)Nc1ccc(F)cc1 -5.22%, CCOc1ccccc1CNC(=O)c1ccc(-c2nc(CSc3ccc(C)cc3)c(C)o2)cc1 -22.7%, COc1ccc(-n2c(=O)c3c(C)c(C)sc3n(CC(=O)NCc3ccc(C)cc3)c2=O)c(OC)c1 -11.4%, O=C(NCc1ccc(F)cc1)C1CCCN(c2ncnc3onc(-c4ccc(F)cc4)c23)C1 (stereo unspecified) -22%, Cc1ccc(Nc2c(-c3ccsc3)nc3cccc(C)n23)cc1 -3.47%, CCOC(=O)CNC(=O)c1ccc(-c2nn(C)c(=O)c3ccccc23)cc1 8.74%, COc1ccc(Cl)cc1NC(=O)CSC1=Nc2ccccc2C2=NC(CC(=O)NC3CCCCC3)C(=O)N12 (stereo unspecified) -29.6%, CCc1ccc(NCc2cc3ccc(OC)cc3n(CC(=O)Nc3ccc(C(C)C)cc3)c2=O)cc1 -15.2%, COc1ccc2cc(-c3nc(Cl)c4c5c(sc4n3)CCCC5)c(=O)oc2c1 -7.1%, COc1cccc(CNc2nccn(-c3cc(C)cc(C)c3)c2=O)c1 -25.2%, CN(C)c1ccc(-c2nc3cnccn3c2Nc2cccc(C(F)(F)F)c2)cc1 -10.4%, COc1ccc(NC(=O)Cn2c(=O)n(Cc3ccco3)c(=O)c3cc(OC)c(OC)cc32)cc1 -12.7%, CCCCN(CCCNC(=O)c1ccc(Sc2ccc(Cl)cc2)c(NC(C)=O)c1)c1ccccc1 -24.4%, Cc1ccc(NC(=O)CSC2=Nc3ccccc3C3=NC(Cc4ccccc4)C(=O)N23)cc1C (stereo unspecified) -24.6%, Cc1cc2c(cc1S(=O)(=O)CCC(=O)N1CCCC(C)C1)OCC(=O)N2 (stereo unspecified) -6.26%, Cc1ccc(-n2ncc(C(=O)NCCN3CCOCC3)c2C2CCN(C(=O)OC(C)(C)C)CC2)c(C)c1 2.16%, COCCn1c(CCC(=O)Nc2ccc(C)c(Cl)c2)nc2cccnc21 -3.34%, Clc1ccc2nc(NCc3ccccc3)c3nncn3c2c1 -3.33%
